From PubChem BioAssay AID504339 (National Center for Advancing Translational Sciences (NCATS), 2011)
Among all 390,000 compounds or so, about 17,000 (4.4%) were called active. The shares of active, inactive and inconclusive entries below differ from those in the screen. Calls follow the shape of the dose curve; as a rule, active = well fitted inhibition curve with a large enough effect; inconclusive = small, poorly fitted or top-dose-only effect; inactive = no such curve, though single readings can be large or run the other way. Potencies of inconclusive entries are doubtful fits and often do not repeat.

What follows are compounds tested against Lysine-specific demethylase 4A (Homo sapiens) (UniProt O75164) (assay: qHTS Assay for Inhibitors of JMJD2A-Tudor Domain). Details: AlphaScreen JMJD2A-Tudor / H3K4me3 peptide binding; activity change, negative = inhibition: at 114 µM (top of the series).
Sequence of UniProt O75164 (O75164 whole entry, looked up, the tested form may be a part): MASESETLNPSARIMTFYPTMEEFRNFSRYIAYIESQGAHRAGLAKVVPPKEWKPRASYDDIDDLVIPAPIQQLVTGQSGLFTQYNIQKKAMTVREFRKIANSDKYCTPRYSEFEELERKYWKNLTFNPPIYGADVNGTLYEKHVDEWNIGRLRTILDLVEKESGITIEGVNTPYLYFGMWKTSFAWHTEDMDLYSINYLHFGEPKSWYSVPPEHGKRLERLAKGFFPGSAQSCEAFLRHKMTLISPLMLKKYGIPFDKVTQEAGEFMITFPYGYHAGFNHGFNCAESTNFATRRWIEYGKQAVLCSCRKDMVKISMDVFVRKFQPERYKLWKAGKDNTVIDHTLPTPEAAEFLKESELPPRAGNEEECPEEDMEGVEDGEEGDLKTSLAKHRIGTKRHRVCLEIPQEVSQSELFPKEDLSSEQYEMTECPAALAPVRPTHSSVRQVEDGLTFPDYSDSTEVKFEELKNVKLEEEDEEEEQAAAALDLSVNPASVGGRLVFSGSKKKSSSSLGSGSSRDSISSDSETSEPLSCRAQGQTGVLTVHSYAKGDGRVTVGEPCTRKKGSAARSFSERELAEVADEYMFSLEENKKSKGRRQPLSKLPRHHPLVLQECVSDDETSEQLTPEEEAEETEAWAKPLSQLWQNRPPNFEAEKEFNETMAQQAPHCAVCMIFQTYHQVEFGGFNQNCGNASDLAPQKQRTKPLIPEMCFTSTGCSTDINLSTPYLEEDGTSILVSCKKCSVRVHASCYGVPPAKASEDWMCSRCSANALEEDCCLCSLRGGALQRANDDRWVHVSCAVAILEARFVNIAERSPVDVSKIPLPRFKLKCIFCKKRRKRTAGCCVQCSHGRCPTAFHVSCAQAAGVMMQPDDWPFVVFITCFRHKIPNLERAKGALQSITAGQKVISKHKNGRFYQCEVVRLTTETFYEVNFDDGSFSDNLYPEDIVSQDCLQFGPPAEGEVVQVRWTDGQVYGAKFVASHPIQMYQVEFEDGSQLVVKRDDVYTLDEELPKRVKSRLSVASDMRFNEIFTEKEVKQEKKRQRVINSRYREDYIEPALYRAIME
% is scaled to controls: 0 for no effect and ±100 for the full control effect; potency is read from the fitted curve at half-maximal effect; tags tell the direction and shape of the fitted curve.
Also: nearly all actives have a fitted effect of over 50% in size.

SMILES | Potency | activity change, negative = inhibition
CCC(=O)N1CCc2cc(S(=O)(=O)NCCC(=O)N3CCN(c4cccc(C)c4)C(C)C3)ccc21 (configuration not stated) | inconclusive: 25.1 µM [inhibitor, full curve] | –
COc1cccc(C(=O)NC(=S)Nc2ccc3c4c(cccc24)CC3)c1 | inconclusive: 79.4 µM [inhibitor, partial curve] | –
CC(C)CN1C(=O)C(=O)N(CC(=O)NC(C)CCc2ccccc2)C1=O (configuration not stated) | inconclusive: 17.8 µM [inhibitor, partial curve] | –
CCOc1ccc(N(CC(=O)NCc2ccco2)S(=O)(=O)c2ccc(OC)c(OC)c2)cc1 | inconclusive: 79.4 µM [inhibitor, partial curve] | –
O=C(NC1CCN(C(=O)N2c3ccccc3Sc3ccccc32)CC1)c1ccccc1F | inconclusive: 63.1 µM [inhibitor, partial curve, poor fit] | –
Cc1ccc(NS(=O)(=O)c2cccc(C(=O)OCC(=O)NCc3ccco3)c2)cc1 | inconclusive: 50.1 µM [inhibitor, partial curve] | –
COc1cccc(-c2onc3ccc(C(=O)/C=C/N(C)C)cc23)c1 | inconclusive: 56.2 µM [inhibitor, partial curve, poor fit] | –
O=C(Nc1nnc(-c2cccs2)o1)c1ccco1 | active: 44.7 µM | –
CCOc1ccc(CN2CCN(Cc3[nH]c4ccccc4c3C)CC2CCO)cc1 (configuration not stated) | inconclusive: 50.1 µM [inhibitor, partial curve] | –
COc1ccc(-c2cn3cccnc3n2)cc1F | – | inactive: 6.95%
C#CCOCCOCCOCCNc1nc(N2CCN(C(=O)[C@H]([C@@H](C)CC)n3cc(CCC(=O)O)nn3)CC2)nc(N2CCN(C(=O)[C@H](Cc3ccc(O)cc3)n3cc(CCO)nn3)CC2)n1 | inconclusive: 89.1 µM [inhibitor, single point] | –
C=C(C)C(=O)Nc1cccc(C2=NOC3(C2)C[C@H](C(N)=O)N(C(=O)c2ccccc2)C3)c1 (some centres not stated) | active: 22.4 µM | –
Cn1c(SCC(=O)NC(C)(C)C)nnc1-c1cnccn1 | inconclusive: 89.1 µM [inhibitor, single point] | –
C[C@@H]1NC(=O)[C@H](CCC(N)=O)NC(=O)c2cc([N+](=O)[O-])cc(I)c2NCCC[C@@H](C(N)=O)NC1=O | – | inactive: -15.3%
COc1ccc(NC(=O)C(=O)NNC(=O)COc2ccc(Cl)cc2)c(OC)c1 | – | inactive: -8.97%
COc1ccc2[nH]c3c(c2c1)CCN1C(=O)C(CC(=O)NCc2ccc(OC)c(OC)c2)C[C@H](C(=O)N2CCOCC2)[C@@]31CCC1CCCC1 (some centres not stated) | active: 50.1 µM | –
Cc1ccc(-c2nc3[nH]c(=O)cc(NC(=O)C(C)C)n3n2)cc1 | – | inactive: -5.15% [at 11.4 µM]
